According to PubChem BioAssay AID485364 (National Center for Advancing Translational Sciences (NCATS), 2010):
Where “and” joins values, the source holds several entries; their conditions need not be identical. Equal values may be shown once. The campaign covered roughly 360,000 compounds. About 11,000 (3.1%) were called active. This list was built around the results that the source calls inconclusive (neither active nor inactive); the mix of calls is not that of the screen. Calls follow the shape of the dose curve; as a rule, active = well fitted inhibition curve with a large enough effect; inconclusive = small, poorly fitted or top-dose-only effect; inactive = no such curve, though single readings can be large or run the other way. A potency beside an inconclusive call is a rough fit, not a confirmed value.

target: Schistosoma mansoni thioredoxin glutathione reductase (TGR) (UniProt Q962Y6); test: qHTS Assay for the Inhibitors of Schistosoma Mansoni Peroxiredoxins; conditions: purified TGR, DTNB reduction, TNB absorbance 405 nm; series mostly up to 114 µM; also: nearly all actives have a fitted effect of over 60% in size
In short: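 Kinetic colorimetric format: TGR-catalysed, NADPH-driven DTNB reduction monitored via TNB absorbance. Enzyme dispensed at 20 nM; compound exposure 15 min at room temperature before reaction start.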
Potency is read from the fitted curve at half-maximal effect; tags tell the direction and shape of the fitted curve.

Q: For `CCCc1cc(SCC(=O)Nc2c(C)n(C)n(-c3ccccc3)c2=O)n2c(nc3ccccc32)c1C#N`, which Potency is on record?
A: The Potency was active: 1.78 µM.

Q: `COc1ccc(NC(=O)c2cc(-c3ccc(C)o3)nc3ccccc23)cc1OC` was tested. Which Potency did it give?
A: Its Potency is inconclusive: 28.2 µM [inhibitor, full curve, poor fit].

Q: Which Potency does the source give for `CN1CCc2c(sc3nc(SCC(N)=O)n(-c4ccc(Cl)cc4)c(=O)c23)C1` here?
A: The Potency was inconclusive: 20 µM [inhibitor, partial curve].

Q: With `COc1ccc(CCNC(=O)CS(=O)Cc2nc(-c3ccccc3F)oc2C)cc1OC` (stereo not given) as the compound, how does the Potency read?
A: Its Potency is inconclusive: 50.1 µM [inhibitor, partial curve] and inconclusive: 89.1 µM [inhibitor, single point].

Q: `O=C(/C=C/c1ccccc1)Nc1sc2c(c1C(=O)O)CCC2` was tested. Which Potency did it give?
A: The Potency was inconclusive: 44.7 µM [inhibitor, partial curve].

Q: For `COC(=O)CCC(=O)Nc1cccc2c(NC(=O)CCC(=O)OC)cccc12`, which Potency is on record?
A: The Potency was inconclusive: 8.91 µM [inhibitor, full curve].

Q: How did the Potency turn out when `Cc1nc2scc(C)n2c(=O)c1S(=O)(=O)NC(C)c1ccccc1` (stereo not given) was run?
A: The Potency was “inactive”.

Q: With `COc1ccc(C(=O)Nc2nnc(S(=O)(=O)N(CC(C)C)c3ccc(C)cc3)s2)cc1OC` as the compound, how does the Potency read?
A: Its Potency is inconclusive: 39.8 µM [inhibitor, partial curve].

Q: Which Potency does the source give for `COc1ccc(NCC(=O)n2c(C)c(C)c3ccccc32)cc1` here?
A: The Potency was inconclusive: 39.8 µM [inhibitor, partial curve].

Q: Which Potency does the source give for `Cc1nn(-c2ccccc2)c(Cl)c1/C=C1\SC(=S)N(CCCCCC(=O)O)C1=O` here?
A: The Potency was inconclusive: 56.2 µM [inhibitor, partial curve].

Q: With `CC(C)(C)C1=CC(=O)C(N2CCOCC2)=CC1=O` as the compound, how does the Potency read?
A: The Potency was “inactive”.

Q: `FC(F)(F)c1cccc(Cn2nnnc2-c2ccc(Cl)cc2)c1` was tested. Which Potency did it give?
A: The Potency was “inactive”.

Q: With `C=C(C)C(=O)Nc1cccc(C2=NOC3(C2)C[C@@H](C(N)=O)N(C(=O)/C=C/CC)C3)c1` (stereo not given in full) as the compound, how does the Potency read?
A: The Potency was inconclusive: 50.1 µM [inhibitor, partial curve].

Q: For `CCOC(=O)c1c(NC(=O)CSc2nnc(C)s2)sc2c1CCC(CC)C2` (stereo not given), which Potency is on record?
A: Its Potency is inconclusive: 56.2 µM [inhibitor, partial curve].

Q: How did the Potency turn out when `CCc1ccc(C(=O)NN(C(=O)c2ccc(CC)cc2)C(C)(C)C)cc1` was run?
A: The Potency was “inactive”.

Q: Which Potency does the source give for `CC(=O)c1cccc(NC(=S)NCc2ccccc2)c1` here?
A: Its Potency is inconclusive: 14.1 µM [inhibitor, partial curve].

Q: With `O=C(c1cc(-c2ccco2)on1)N1CCCc2ccccc21` as the compound, how does the Potency read?
A: Its Potency is inconclusive: 12.6 µM [inhibitor, partial curve].

Q: How did the Potency turn out when `COC(=O)c1c(NC(=O)C(C)(C)C)sc2c1C(C(=O)OC)CC2` (stereo not given) was run?
A: Its Potency is active: 31.6 µM.

Q: How did the Potency turn out when `O=S(=O)(c1ccc(Br)s1)N1CCN(CCOc2ccccc2)CC1` was run?
A: The Potency was “inactive”.

Q: With `COc1ccc(N2C(=O)[C@@H]3[C@H](C2=O)[C@H]2C=CC=NN2[C@@H]3C(=O)Nc2ccc(Cl)cc2)cc1` as the compound, how does the Potency read?
A: The Potency was inconclusive: 56.2 µM [inhibitor, partial curve].

Q: `Nc1c(C(=O)NCc2ccco2)c2nc3ccccc3nc2n1CCc1ccc(F)cc1` was tested. Which Potency did it give?
A: Its Potency is inconclusive: 44.7 µM [inhibitor, partial curve].

Q: For `Cn1cc(CN2CCN(Cc3ccccc3)CC2)c(-c2cccc(Cl)c2)n1`, which Potency is on record?
A: Its Potency is active: 31.6 µM.

Q: With `COc1ccccc1N1CCN(CC(=O)c2ccc3ccn(C(C)=O)c3c2)CC1` as the compound, how does the Potency read?
A: Its Potency is active: 25.1 µM.

Q: How did the Potency turn out when `OCCC1CN(Cc2cccn2-c2cccnc2)CCN1Cc1ccccc1` (stereo not given) was run?
A: The Potency was inconclusive: 44.7 µM [inhibitor, partial curve].

Q: With `CC(C)c1nc2sc3c(SCC(=O)NCc4ccco4)ncnc3c2c2c1CCC2` as the compound, how does the Potency read?
A: The Potency was active: 25.1 µM.

Q: Which Potency does the source give for `Cc1cc(/C=C2\C(=N)N3N=CSC3=NC2=O)c(C)n1Cc1ccccc1` here?
A: The Potency was “inactive”.

Q: With `COC(=O)c1ccc(COc2ccc(C3C4=C(CCCC4=O)Nc4onc(C)c43)cc2)cc1` (stereo not given) as the compound, how does the Potency read?
A: The Potency was inconclusive: 31.6 µM [inhibitor, partial curve].

Q: Which Potency does the source give for `Cc1ccc(C2=NO[C@@](CC(=O)O)(C(=O)Nc3ccc4c(c3)OCCO4)C2)cc1` here?
A: Its Potency is active: 14.1 µM.

Q: With `COc1nccc(Nc2ccccc2)c1C#N` as the compound, how does the Potency read?
A: The Potency was inconclusive: 89.1 µM [inhibitor, single point].

Q: For `CCOC(=O)C1CCN(C(=O)CSc2nnc(-c3ccco3)n2-c2ccccc2)CC1`, which Potency is on record?
A: The Potency was inconclusive: 89.1 µM [inhibitor, partial curve, poor fit].

Q: With `Cc1csc(/C(=N/OC(=O)c2ccco2)C(N)=O)n1` as the compound, how does the Potency read?
A: The Potency was active: 3.98 µM.

Q: How did the Potency turn out when `CCOc1ccccc1CN1CCNC(=O)C1CC(=O)N(C)C1CCOCC1` (stereo not given) was run?
A: The Potency was inconclusive: 50.1 µM [inhibitor, partial curve].

Q: For `COc1ccccc1N(CC(=O)NCc1ccco1)S(=O)(=O)c1ccc(C)cc1`, which Potency is on record?
A: The Potency was active: 39.8 µM.

Q: With `Cc1cc(=O)n(CC(C)C)c(O)c1C#N` as the compound, how does the Potency read?
A: Its Potency is inconclusive: 44.7 µM [inhibitor, partial curve].

Q: For `CCSc1ccccc1C(=O)Nc1ccc(-c2nc3ccccc3s2)c(O)c1`, which Potency is on record?
A: Its Potency is inconclusive: 39.8 µM [inhibitor, single point].

Q: Which Potency does the source give for `CCOC(=O)C1C(=O)CC(C)(O)C(C(=O)OCC)C1c1ccc(Br)o1` (stereo not given) here?
A: Its Potency is inconclusive: 50.1 µM [inhibitor, partial curve].

Q: Which Potency does the source give for `Cc1cc(C)n(-c2ccc(C(=O)NC3=NCCS3)cc2)n1` here?
A: Its Potency is “inactive”.

Q: `N=C(N)SCc1ccc(O)c([N+](=O)[O-])c1` was tested. Which Potency did it give?
A: Its Potency is active: 44.7 µM.

Q: Which Potency does the source give for `CC(=O)Nc1ccc(CN2CCc3c([nH]c4ccccc34)C2C(C)(C)C)cc1` (stereo not given) here?
A: The Potency was active: 50.1 µM.

Q: For `CCc1cc(C(=O)Cc2ccc(F)cc2)c(O)cc1O`, which Potency is on record?
A: Its Potency is “inactive”.

Q: Which Potency does the source give for `Cc1nnc(N=c2ssnc2Cl)o1` here?
A: Its Potency is active: 28.2 µM.

Q: `Cc1onc(-c2c(F)cccc2Cl)c1C(=O)NC1CC1` was tested. Which Potency did it give?
A: Its Potency is inconclusive: 44.7 µM [inhibitor, partial curve, poor fit].

Q: `Cc1ccc(S(=O)(=O)N2CCCc3cc(NS(=O)(=O)c4cc(C)ccc4C)ccc32)cc1` was tested. Which Potency did it give?
A: Its Potency is “inactive”.

Q: How did the Potency turn out when `O=C(CC1NCCc2ccccc21)Nc1ccccc1` (stereo not given) was run?
A: The Potency was inconclusive: 89.1 µM [inhibitor, single point].

Q: Which Potency does the source give for `CCOC(=O)c1ccc(OCC2NCCc3cc(OC)c(OC)cc32)cc1` (stereo not given) here?
A: The Potency was “inactive”.

Q: Which Potency does the source give for `Cc1cc(C)c2c(c1)c(C)cc1nnc(SCC(=O)NCc3ccco3)n12` here?
A: Its Potency is inconclusive: 15.8 µM [inhibitor, full curve].

Q: How did the Potency turn out when `Cc1ccccc1C[C@H](C(=O)O)N1C(=O)c2ccc(C(=O)O)cc2C1=O` was run?
A: The Potency was “inactive”.

Q: With `Cc1ccc(C)c(NC(=S)NC(NC(=O)N(C)C)C(Cl)(Cl)Cl)c1` (stereo not given) as the compound, how does the Potency read?
A: The Potency was inconclusive: 31.6 µM [inhibitor, partial curve].

Q: For `Cn1c(CC2Sc3ccccc3NC2=O)nnc1SCC(=O)c1ccc(Cl)cc1` (stereo not given), which Potency is on record?
A: The Potency was inconclusive: 39.8 µM [inhibitor, full curve].

Q: `COc1ccc2c(c1)Cc1sc(NC(C)=O)nc1-2` was tested. Which Potency did it give?
A: Its Potency is active: 56.2 µM.

Q: With `CCOc1ccc(Nc2nc(Cc3nnc(SCC(=O)NCc4ccco4)n3CC)cs2)cc1` as the compound, how does the Potency read?
A: Its Potency is inconclusive: 50.1 µM [inhibitor, partial curve].

Q: Which Potency does the source give for `Cc1cccc(CCNC(=O)CC2C(=O)NCCN2Cc2ccccc2C)n1` (stereo not given) here?
A: The Potency was inconclusive: 39.8 µM [inhibitor, full curve].

Q: For `O=C(NC(=S)Nc1ccccc1N1CCCC1)c1ccco1`, which Potency is on record?
A: The Potency was inconclusive: 35.5 µM [inhibitor, partial curve].

Q: Which Potency does the source give for `CC1=C(C(=O)OCc2ccccc2)C(c2ccsc2)C(C#N)=C(N)O1` (stereo not given) here?
A: The Potency was “inactive”.

Q: For `Cc1cccc(OCc2nnc(SCC(=O)N3c4ccccc4CCc4ccccc43)o2)c1`, which Potency is on record?
A: The Potency was “inactive”.

Q: How did the Potency turn out when `CN(Cc1ccccc1)C1CCN(Cc2ccccc2[N+](=O)[O-])CC1` was run?
A: Its Potency is inconclusive: 22.4 µM [inhibitor, full curve, poor fit].

Q: With `Cc1ccccc1NC(=O)/C(=C/c1ccco1)c1ccccc1` as the compound, how does the Potency read?
A: The Potency was inconclusive: 50.1 µM [inhibitor, partial curve].

Q: Which Potency does the source give for `COc1ccccc1N1CCN(C(=O)CSc2nnc(-c3ccoc3C)o2)CC1` here?
A: The Potency was inconclusive: 1.78 µM [inhibitor, partial curve, poor fit].

Q: Which Potency does the source give for `COC(=O)c1ccc(CS(=O)(=O)c2ccc(F)cc2)o1` here?
A: The Potency was active: 22.4 µM.

Q: Which Potency does the source give for `Cc1ccc(N=Cc2ccc[nH]2)c(O)c1` here?
A: Its Potency is inconclusive: 44.7 µM [inhibitor, partial curve].

Q: For `FC(F)(F)c1cc(-c2ccco2)nc(NCc2cccs2)n1`, which Potency is on record?
A: The Potency was active: 20 µM.

Q: For `Cc1cccc(-c2nsc(SCC(=O)Nc3cc(C)on3)n2)c1`, which Potency is on record?
A: Its Potency is inconclusive: 31.6 µM [inhibitor, full curve, poor fit].

Q: With `CCOc1ccccc1CNC(=O)C1CCN(c2nnc(-n3c(C)ccc3C)s2)CC1` as the compound, how does the Potency read?
A: The Potency was inconclusive: 44.7 µM [inhibitor, partial curve].

Q: `CCn1nc(C)c(CNC(=O)CC2C(=O)NCCN2Cc2ccc(C)o2)c1C` (stereo not given) was tested. Which Potency did it give?
A: Its Potency is inconclusive: 25.1 µM [inhibitor, single point].

Q: How did the Potency turn out when `C#CCOCCOCCOCCNc1nc(N2CCN(C(=O)[C@H](CCCCN)n3cc(C(N)CO)nn3)CC2)nc(N2CCN(C(=O)[C@H](CCC(=O)O)n3cc(C(N)Cc4ccc(O)cc4)nn3)CC2)n1` (stereo not given in full) was run?
A: Its Potency is inconclusive: 14.1 µM [inhibitor, full curve, poor fit].

Q: How did the Potency turn out when `O=[N+]([O-])c1c(NCc2ccco2)ccc2nonc12` was run?
A: The Potency was “inactive”.

Q: How did the Potency turn out when `CCOC(=O)C1(Cc2cccc(Cl)c2)CCCN(C(=O)c2ccoc2C)C1` (stereo not given) was run?
A: Its Potency is inconclusive: 50.1 µM [inhibitor, partial curve].

Q: How did the Potency turn out when `Cc1cccc(Cn2cccc2CNS(=O)(=O)c2ccccc2F)c1` was run?
A: Its Potency is inconclusive: 50.1 µM [inhibitor, partial curve].

Q: `Cc1cccc(OCCCC(=O)Nc2nccs2)c1` was tested. Which Potency did it give?
A: The Potency was inconclusive: 89.1 µM [inhibitor, single point].

Q: How did the Potency turn out when `C=CCn1c(O)c(C(C)=NCCN2CCCCC2)c(=O)[nH]c1=O` was run?
A: The Potency was active: 14.1 µM.
